In paper PMC6919601, “Identification of Plasmodium dipeptidyl aminopeptidase allosteric inhibitors by high throughput screening” (PLoS ONE, 2019):
Among all 110,000 compounds or so, about 230 (0.21%) showed an effect of 50% or more. This is one part of the list.

The compounds below were run against DPAP1 (Plasmodium falciparum, UniProt Q8IIJ9) (assay: primary screen, percent inhibition; read by cleavage of a fluorogenic dipeptide substrate; higher = more effect of the substance).
Parameters: species or system P. falciparum D10 trophozoite lysates; single well
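Also: 30 min substrate incubation versus DMSO and 10 µM JCP410 controls.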

Chain of DPAP1 (Q8IIJ9 whole entry, looked up): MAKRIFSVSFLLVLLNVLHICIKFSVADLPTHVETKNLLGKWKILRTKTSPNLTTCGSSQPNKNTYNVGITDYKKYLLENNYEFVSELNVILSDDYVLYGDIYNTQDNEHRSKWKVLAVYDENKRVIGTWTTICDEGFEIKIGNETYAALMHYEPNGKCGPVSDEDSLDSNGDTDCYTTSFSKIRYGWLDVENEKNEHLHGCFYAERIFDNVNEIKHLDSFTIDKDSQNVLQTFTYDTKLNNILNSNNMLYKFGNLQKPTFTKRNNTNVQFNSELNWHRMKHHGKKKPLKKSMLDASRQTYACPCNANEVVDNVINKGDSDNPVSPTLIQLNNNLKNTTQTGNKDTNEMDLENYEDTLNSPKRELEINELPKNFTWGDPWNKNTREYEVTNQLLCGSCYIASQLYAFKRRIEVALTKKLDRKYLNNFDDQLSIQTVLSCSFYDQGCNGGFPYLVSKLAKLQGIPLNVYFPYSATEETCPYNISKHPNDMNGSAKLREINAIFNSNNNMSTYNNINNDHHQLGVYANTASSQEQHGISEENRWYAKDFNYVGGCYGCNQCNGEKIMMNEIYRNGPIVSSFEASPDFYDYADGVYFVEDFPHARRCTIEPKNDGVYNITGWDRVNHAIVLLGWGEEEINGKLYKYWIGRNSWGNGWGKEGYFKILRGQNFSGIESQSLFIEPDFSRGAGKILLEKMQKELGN

| SMILES | % Inhibition @ 10 uM |
| --- | --- |
| COc1ccc2c(c1)CC/C(=C/c1ccc(OC)c(OC)c1OC)C2=O | 1.07% |
| COc1ccc(CC/N=C2\CC(C)(C)CC(O)=C2C(=O)Cc2ccccc2)cc1OC | -5.15% |
| Cc1cc(NS(=O)(=O)c2ccc(NC(=O)c3cc(-c4ccc(C)o4)nc4ccccc34)cc2)no1 | -0.469% |
| COc1ccc(C2=N/C(=C\c3ccco3)C(=O)O2)cc1OC | 6.11% |
| CCCCNc1nc2c(S(=O)(=O)c3ccccc3)nnn2c2ccsc12 | 4.84% |
| CCOc1ccc(NC(=O)c2cc(C)cc(C)c2)c([N+](=O)[O-])c1 | -2.15% |
| Cc1cccc(OCC(=O)NCc2ccc(F)cc2)c1C | -4.56% |
| CCN1CCN(c2c(S(=O)(=O)c3ccc(C)cc3)cnc3ccc(Cl)cc23)CC1 | -9.11% |
| CCN1C(=O)/C(=C\c2ccc(OC)c(OC)c2)S/C1=N/c1ccccc1 | -1.57% |
| CCN(Cc1ccccc1)C(=O)CCc1nc(-c2ccc(C)cc2)no1 | -2.8% |
| COCCN1C(=O)c2ccccc2C(C(=O)N2CC(C)CC(C)C2)C1c1cccs1 (stereo not drawn) | 1.64% |
| O=C(CCc1ccccc1)n1nc(-c2ccc(Cl)cc2)nc1NCc1ccco1 | 3.93% |
| CC1(C)CC(OC(=O)c2ccccc2)CC(C)(C)N1 | 3.03% |
| O=C(NCCCCc1ccccc1)c1cccs1 | -2.36% |
| CCOC(=O)N1CCC(NCc2c(C(=O)O)c(C)n(Cc3ccccc3C)c2C)CC1 | -0.23% |
| Cc1nn(C(=O)Cc2ccc(Cl)cc2)c(C)c1Br | -0.597% |
| C=CCN1C(=O)/C(=C/c2ccco2)C(=O)NC1=S | 3.03% |
| Cc1ccc(Cn2nnc3c(=O)n(CC(=O)N4CCCC4)cnc32)cc1 | -2.16% |
| FC(F)(F)c1ccc(-c2noc(/C=C/c3ccccc3)n2)cc1 | 2.62% |
| CCCC(=O)C1=C(NC(C)C)CC(C)(C)CC1=O | -1.59% |
| O=C(c1cccc(Cl)c1)N1CCN(C/C=C/c2ccccc2)CC1 | 2.78% |

| SMILES | % Inhibition @ 10 uM |
| --- | --- |
| Cc1ccc(S(=O)(=O)NCC(=O)N2CCN(c3cccc(Cl)c3)CC2)cc1 | 0.161% |
| CCC(=O)N1C(C(=O)NCc2ccc3c(c2)OCO3)CSC12CCN(C)CC2 (stereo not drawn) | -0.128% |
| COc1cc(C2C(C#N)=C(N)Oc3c2cc(Cl)c2ccccc32)cc(OC)c1OC (stereo not drawn) | 6.13% |
| COc1ccc(CCN(Cc2ccccn2)S(=O)(=O)c2ccc(Cl)cc2)cc1OC | 8.2% |
| O=C1NC(=O)C(=Cc2cccn2-c2ccc([N+](=O)[O-])cc2)C(=O)N1 | -6.29% |
| O=C(NCc1ccc2c(c1)OCO2)C1CCCN(c2ncnc3c2nc2n3CCCCC2)C1 (stereo not drawn) | 4.83% |
| O=C(NCCOC12CC3CC(CC(C3)C1)C2)c1nc(-c2cccnc2)no1 | -0.788% |
| O=C(NCc1cccnc1)C(Cc1ccccc1)NS(=O)(=O)c1cccc2nsnc12 (stereo not drawn) | 2% |
| COc1ccc(NC(=O)c2cc(CC(C)C)oc2C)cc1 | 5.09% |
| CCCc1cc(O)n2nc(C(F)(F)F)nc2n1 | -6.71% |
| COc1ccc(C(=O)C2=C(O)C(=O)N(CCN(C)C)C2c2ccccc2F)cc1 (stereo not drawn) | 0.487% |
| COc1ccc(N(CC(=O)Nc2cccc(Br)c2)S(C)(=O)=O)c(OC)c1 | 2.02% |
| COc1cc(/C=C2/C(=N)N3N=C(c4ccccc4C)SC3=NC2=O)ccc1O | 0.484% |
| CC(CCN1CCOCC1)c1ccccc1 (stereo not drawn) | 6.06% |
| Brc1ccc2c(c1)CNc1cccnc1O2 | 3.24% |
| Cc1cccnc1NC(=O)Nc1cccs1 | -3.1% |
| O=C(O)C1C2CCC(O2)C1C(=O)NCc1cccs1 (stereo not drawn) | -2.68% |
| Cn1cccc1/C=C1\SC(=O)N(CC(=O)Nc2ccc(Cl)cc2)C1=O | 7.87% |
| CCc1nc2ccc(C(=O)NCc3cccc(C)c3)cc2nc1CC | 4.38% |
| c1ccc(Nc2nc(N3CCOCC3)nc(N3CCOCC3)n2)cc1 | -0.902% |
| COc1cc(Br)ccc1C1/C(=C(\O)OC2CCCCC2)C(C)=Nc2ncnn21 (stereo not drawn) | -5.33% |

| SMILES | % Inhibition @ 10 uM |
| --- | --- |
| N#Cc1cc2c(=O)n3ccccc3nc2n(C2CCS(=O)(=O)C2)c1=O (stereo not drawn) | -0.551% |
| CC(C)CCNC(=O)c1ccc(-c2ccccc2)s1 | -0.447% |
| Cc1cc(C(F)F)n2nc(C(=O)Nc3ccc(S(=O)(=O)N4CCCCCC4)cc3)nc2n1 | -0.425% |
| CC(C)Sc1nc(N2CCCCC2)c2c(c1C#N)CCCC2 | -4.7% |
| Cc1cccc(Cn2c(Br)nc3c2c(=O)n(C)c(=O)n3C)c1 | -2.32% |
| Cc1cc(C)c2oc(C(=O)N3CCN(Cc4ccccc4)CC3)cc(=O)c2c1 | 1.9% |
| CC(C)NC(=O)C1CCN(c2nn3cc(-c4ccc(F)cc4)nc3s2)CC1 | 6.04% |
| CC1=C(C#N)C(c2cccc(Cl)c2Cl)C2=C(O)CC(c3ccccc3)CC2=N1 (stereo not drawn) | -2.2% |
| Cc1ccc(S(=O)(=O)Nc2cccc(C(=O)NC(C)(C)CO)c2)cc1 | -3.58% |
| O=C(NC1CCCCC1)N(Cc1ccccc1)Cc1ccco1 | -1.33% |
| O=S(=O)(Nc1ccccc1)c1cccc(S(=O)(=O)c2ccc(Cl)cc2)c1 | 3.01% |
| COc1ccccc1C(=O)N(Cc1ccc(C)o1)C1CCS(=O)(=O)C1 (stereo not drawn) | 1.99% |
| O=C(CCCC(=O)c1ccccc1)NCCc1ccccc1 | -8.86% |
| CCOC(=O)C1=C(C)NC(=O)NC1c1ccc(OC)c(Cn2nnc3ccccc32)c1 (stereo not drawn) | -0.169% |
| COc1cc(C2CC(=O)NC(SCC(=O)Nc3ccc(Br)cc3)=C2C#N)ccc1O (stereo not drawn) | -5.34% |
| COCCN1C=C(C(=O)OC)C(c2ccsc2)C(C(=O)OC)=C1 | -5.01% |
| CCc1ccccc1NC(=O)CN(c1ccc(OC)cc1OC)S(C)(=O)=O | -3.25% |
| O=C(NCc1ccc(F)cc1)c1cnc(N2CCCC2)nc1 | 0.44% |
| CCOc1cccc2c1Oc1nc(-c3ccccc3)nc(SCC(N)=O)c1C2 | 9.33% |
| CCN(CC)c1nc(N)nc(Nc2ccc3cc(-c4ccccc4)c(=O)oc3c2)n1 | 2.13% |
| COc1ccc(NC2=CC(c3ccc(OC)c(OC)c3)N(c3ccc(OC)cc3)C2=O)cc1 (stereo not drawn) | 7.98% |
